Results from the antibiotic and cytotoxicity screens of Wong et al. (2023).
This is one part of the list.

Each compound was assayed on S. aureus RN4220 (assay: growth inhibition call (relative growth <= 0.2)). Details: 50 µM.

Growth inhibition call, inactive:
C[C@@H]1CCCCO[C@@H](CN(C)Cc2ccc3c(c2)OCO3)[C@H](C)CN([C@@H](C)CO)C(=O)c2cc(NC(=O)NC3CCCCC3)ccc2O1
COc1nonc1NC(C)=O
C[C@@H]1CCCCO[C@@H](CN(C)S(=O)(=O)c2cn(C)cn2)[C@H](C)CN([C@H](C)CO)C(=O)c2cc(NS(=O)(=O)c3ccc(F)cc3)ccc2O1
Cc1cc(C(=O)Nc2cccc3c2O[C@H](CN(C)S(=O)(=O)c2ccc(F)cc2)[C@H](C)CN([C@@H](C)CO)C3=O)n(C)n1
O=C(C1=C[C@@H](c2csc3ccccc23)C[C@@H](OCc2ccc(CO)cc2)O1)N1CCN(Cc2ccccc2)CC1
C[C@H]1CN([C@@H](C)CO)C(=O)c2cc(C#CC3CCCCC3)cnc2O[C@@H]1CN(C)C(=O)c1ccncc1
CCC(C=CC(C)C1CCC2C3CCC4=CC(=O)CCC4(C)C3CCC12C)C(C)C (centres undefined)
C[C@@H]1CCCCO[C@H](CN(C)S(=O)(=O)c2cn(C)cn2)[C@H](C)CN([C@@H](C)CO)C(=O)c2cc(N(C)C)ccc2O1
COc1ccc(NC(=O)N(C)C[C@@H]2OCCCC[C@H](C)Oc3ccc(NS(=O)(=O)c4ccc(F)cc4)cc3C(=O)N([C@H](C)CO)C[C@@H]2C)cc1
